Experimental data: the supplement of paper PMC11417369
The other results are listed elsewhere or left out.

System: PfAP2-HC AP2 domain (GST-tagged)
Experiment: gcPBM binding intensity (ln(normalized median fluorescence intensity)); higher = stronger DNA binding
Outline: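 GST-fused DNA-binding domains of P. falciparum, expressed in E. coli, were applied at about 25 μg on average for 1 h to an Agilent 4 × 180k array of primer-extended double-stranded 36-bp intergenic genomic probes and negative controls. Binding intensity is the highest Masliner-normalised natural-log median intensity across replicate spots of either probe orientation, measured with Alexa488 anti-GST antibody and a 488 nm scan.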

Sequence | gcPBM binding intensity (ln)
ATGGTTTTCAGAAAAACATGCATACAATAATAAAAA [TGCATGCA_site815] | 9.59
TTTAAAATAACCAAAAACAAAAAGAAACACAAATGT [GTGCAC_negctrl_site705] | 9.78
GATCAAATAGAAAATACATGCAATGTGTGAAATAAC [TGCATGCA_site835] | 9.86
TTTCAAATGGAATGTGTGCACATAAATGTAAATAAA | 10.1
AAAAAAAAAATTTACTGTACACATTTGGGATACTCA [XGTACX_site5191] | 9.58
ATATGTAGTTTTTATTGTACGTGTAGAAGAAATAAT [XGTACX_site6608] | 9.86
TTCATTAAAATTATTACACACAGTTCTTCAACCAAA [CACACA_site3504] | 9.72
AATGATTTTCAATCGAAATGAAACTTAGAAGATATA [CACACA_negctrl_site1475] | 9.5
TTTTAAACAGGACACACACACATATAGATTTATATA [CACACA_site6560] | 10.3
AAACTTTTTTTAAAAACACACATATAGATTTATATA [CACACA_site7842] | 9.63
TTTTGTTATTTTTGTATGCACTACATATTATTATAT | 9.99
TATTTTTAAACAAAACTGTATTTATTTTTTAAAATT [CACACA_negctrl_site1449] | 9.44
TAGTTTTTTATATATTGTACAAATGATATATTATAT [XGTACX_site1002] | 9.56
GAAATTAAAAAATTTATGCACACTTTAAAAAAAAAA [CACACA_site3769] | 9.58
ATATATATATATAATTGTACATTTTTATGTTTTATA [XGTACX_site4560] | 9.92
ATGAAAAAAAATAAAAAATATATATATATATATATA [CACACA_negctrl_site236] | 9.48
TATATTTTAATTTGAAGTACTAATATTTATTTATAT [XGTACX_site7458] | 9.47
TATAACCATATATACACACACATATAAATATAAATA [CACACA_site7089] | 10.1
AAGGTGGAAACAATTACACACACACTAAAAAAAAAA [CACACA_site7493] | 10.8
ATATATATATATTTCGTGCACTGATAATATTATTTT | 9.75
TTGTCTACAAAAATGTGCTTCTAATCATACGACTTG [CACACA_negctrl_site46] | 9.47
TACATATATTATTGCACACATATAAAATACCCCCAA [CACACA_site3895] | 10.1
CAGTTTACTAATATTGCACACGAATATGAAAAAGAG [CACACA_site8941] | 9.84

Sequence | gcPBM binding intensity (ln)
TTTTTTTTTCAAGAGGTGCGTGTATTTTAACAAAAA | 9.46
AAAAAAAATTATGAAGTGCATTAGTGAATTTGATTG | 9.61
TTATCATTTGCCATTGTGCACTTATATGCTCACATT | 9.9
TTTTTCACACTTCAAAAGTGTCAACCTTCTATTCTC [TGCATGCA_negctrl_site489] | 9.81
CACAAATATACAAATACACACAAATATACAAATACA [CACACA_site2385] | 10.1
GTAAAATTTACATAGAGTACTTATATTTTTTTCTGC [XGTACX_site3414] | 9.45
ATATTGTAAGTAAACACACACACATATATCTGTATA [CACACA_site4541] | 10.3
TAAAGTGTAAAATTCACACACATATATATATATATA [CACACA_site4883] | 9.84
ATTTTTTTTTTCTTTTTTTTTTGTTTTTCTCCTTTT [CACACA_negctrl_site1182] | 9.49
ATTTTTTTTATTATTACACACATATAATAAAAAAAT [CACACA_site1802] | 9.44
GTATAATTTATTGAACGTACACATATATATATGTAT [XGTACX_site1395] | 9.74
AATAAAATGCAATACATTTTGTTATATAATGTTGTT [CACACA_negctrl_site1525] | 9.7
CACAATGTAGTGTATAAATACAATAAAAGGTTGTAT [CACACA_negctrl_site700] | 9.87
AAATGTATAGGAATAATAATAAAAAAAAAAAAAAAT [CACACA_negctrl_site1793] | 9.65
TGGAGGTCAGTTCACAGTACCCAGTAACTCTACGGA [XGTACX_site2549] | 9.3
AAAAAAAATAAAATAATAAAAATTATGAATATATAT [CACACA_negctrl_site280] | 9.63
ATCATTCCACTTTTCACACATATCTCTATTTCTATC [CACACA_site4723] | 10.1
ATAGGTAATAATAATACACACGGTGAAATATAGATG [CACACA_site9336] | 10.3
TATTTCTTATTACATACACACATATACATAGATGAC [CACACA_site5729] | 9.86
TCTTGTCTACCTTGTATTTAATATTTACATATATAA [TGCATGCA_negctrl_site320] | 9.78
TATTTGTAAAAATTGTGTACTTAGAAAATTCCAAAA [XGTACX_site6007] | 9.22
TATATGTTTTTATGTACACACTTTTAACCTAAGAAA [CACACA_site4769] | 9.61
TTCTTGTATATATTTTGTACATATATACCATTTTAG [XGTACX_site2409] | 9.88

Sequence | gcPBM binding intensity (ln)
TTAAATGTAATATAATGTACGGATATTTACCATAAA [XGTACX_site1472] | 9.42
TACAAATATGGACACACACACATATATATATATATA [CACACA_site4488] | 11.3
TTATTTTTTTATTCATGTACACAAGAACATTTCATT [XGTACX_site5744] | 9.62
TAAATATATTGGAGAGGTACACTTTTGGCATTGAAA [XGTACX_site8447] | 9.49
GTATATATAATGTGCCGTACATTTATATATTCAATA [XGTACX_site1051] | 9.54
GTATAATAGAAACACACACACACACCCAAAAAAAAA [CACACA_site2010] | 10.7
AAGTATGTATCACAAAGTACTTAAGCATATATTTAA [XGTACX_site4121] | 9.71
TTGTAATAAATAAAAGTGCATATATGGTTCCACTAT [GTGCAC_site9944] | 9.61
TATAATTATATAAATTGTACATAAAAAGTTTTTACT [XGTACX_site3621] | 9.45
TATTATATCTTTTCAAGTACACATAACATACTTATT [XGTACX_site1081] | 9.8
ACATATTAAATATGAGTGCAATATATATATATATAA | 9.77
TATATATACTTTTATGTACACACCTATAATATGGGT [CACACA_site1759] | 9.87
AAATGTAATAATAAATGTACAAACATATATATGTAT [XGTACX_site8718] | 9.81
ATAAATAAATAAAAAAGTACATTTCCACTTTTAACA [XGTACX_site81] | 9.38
TGCACCCACCAACACACACACAACTAAAAAATAATG [CACACA_site2566] | 10.5
AAGTTTAAAATCTTTGCACACATATAAATAAATATA [CACACA_site2554] | 9.63
CAATATATTATATGGGTGCAAACCACATATAAATAA | 9.67
TTAGGTATATATAAACGTACTCACAATATCATATAA [XGTACX_site8743] | 9.54
ACTTAGGAAATAAAACGTACATTAAATATATACATA [XGTACX_site2990] | 9.61
TGAATAATCAATAGTACACACATATAAATATAAATA [CACACA_site7345] | 9.88
TTTTATTTATTATTATGTACACACTATATTAAAACA [XGTACX_site1265] | 9.69
GTATGTATGTATGTATGTACTTATTAATCAGTAAAA [XGTACX_site3844] | 9.71
ATAAAAGATATGTATATGTATATGTATATATATATA [TGCATGCA_negctrl_site214] | 10.1

Sequence | gcPBM binding intensity (ln)
TATAAATAAATAGATACACACATATTTATAAATACA [CACACA_site6219] | 9.79
TTACGCTGCTATATAGTGCACATAATATATGACCTG | 9.43
GCTTAAGGTAAATATAAAATATAGTGTATACTTTAG [XGTACX_negctrl_site585] | 9.51
AAATAAAATAATAAAACATGCAAAAATAATGATTTA [TGCATGCA_site415] | 9.83
ATAAAGATTAACAAAGTGCATTTATATATATAATCT [GTGCAC_site9407] | 9.68
TTTTTGTTAACAATGGGTACAAAAAAAAGGAAAATA [XGTACX_site7466] | 9.49
CCCAAAAAATATCATAGTACTCAACATGACTACTAT [XGTACX_site7838] | 9.63
AATTTTGTATAGGTATCACACATGAAATATATTATT [CACACA_site5526] | 9.7
ATTCTACGCACGCGCACACACAACAAAAAAAAAAAA [CACACA_site3538] | 9.98
GTGATGGTACAATATACACACTTAAAAAAAAAAAAT [CACACA_site5360] | 9.62
CATGTGTGATAATGATGTACTATATTAAGCTAGTCC [XGTACX_site2690] | 9.62
TATATACATATATATTGTACTTATTTTTATAATGTC [XGTACX_site3453] | 9.75
TTTATAATTCTTACAACACACAATGTACTTTTATAT [CACACA_site8340] | 9.9
TTTATTTCCTTTTTGTGTACATATATATGTAATTCA [XGTACX_site1718] | 9.77
TTAAGGCATCAACATAGTACAATTTTTCTATAATAA [XGTACX_site1114] | 9.4
ATTTAATACAAATACACACACAAATAAATACAGATA [CACACA_site5956] | 10.2
TCGAATATCTTATAGGTGCATCATAAATACATATGT | 9.66
TAATTCTTTATTTTTCGTACGTAAAACAAAAAATAT [XGTACX_site862] | 9.51
AATGTAAAGAACAAAACATGCAACTAGTTTACTTTT [TGCATGCA_site841] | 9.72
TAGAAAAAAGATAGCACACACGGCCCAATATATATA [CACACA_site5354] | 10
TAAGTATATAAAATTACACACTATTTTTTTTCAAGT [CACACA_site1792] | 9.62
